Here are results for 94 sequences from the supplement of paper PMC3334620.

The full ranking holds about 33,000 sequences; the median of “E-score (-0.5 to 0.5)” is about -0.04, and the highest 2% start at about 0.36. The list shows a part of the results.

For this test, the target named is T1, Hmlalpha2 (UniProt P0CY09).
T1 sequence: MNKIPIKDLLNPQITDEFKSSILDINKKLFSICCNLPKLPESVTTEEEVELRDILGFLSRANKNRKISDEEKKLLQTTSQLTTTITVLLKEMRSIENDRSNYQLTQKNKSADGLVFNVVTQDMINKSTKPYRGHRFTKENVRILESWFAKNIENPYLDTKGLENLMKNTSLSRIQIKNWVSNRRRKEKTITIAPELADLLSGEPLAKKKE
The experiment in a line: PBM E-score (8-mer binding enrichment) (E-score (-0.5 to 0.5)); higher = stronger / more preferred TF binding; most listed sequences are background and not binding sites. As to conditions: protein concentration: 200 nM; construct: GST-full length. Summed up:
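Using PURExpress in vitro transcription/translation, GST-tagged yeast transcription factors were made in full-length or DNA-binding-domain form. These were applied at about 100-200 nM to double-stranded universal all-10-mer Agilent arrays, and bound protein was detected with fluorescent anti-GST. Scans were normalised with masliner before the Universal PBM Analysis Suite assigned E-scores to ungapped eight-base words pooled with their reverse complements.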
Consider GTGCACCA, for which the “PBM E-score” value is -0.0978. To ATACTCAG belongs 0.217. To AGAGACCT belongs -0.0673; to CCATGATA, -0.142. Regarding TCCCTCAA, the “PBM E-score” value is -0.239. As for GCTAGGAC, the “PBM E-score” value is -0.0406. GATTCGGA: the “PBM E-score” value stood at 0.145.

Consider ACGTGTCG, for which the “PBM E-score” value was 0.308. To CATTGGCC belongs -0.195; to ATGGTCGC, 0.0102. On to CCTACCCA, for which the “PBM E-score” value was -0.192. For GGATATAA, the “PBM E-score” value turned out to be 0.147. To CATCTAGA belongs -0.19. For the sequence TGTTAACA, the “PBM E-score” value came out at 0.426. To ACTTTTAG belongs -0.0435; to CAGCGGGG, -0.331. To GATACAAA belongs 0.264; to CATGGTAG, 0.1. To AAAGACGT belongs -0.00312; to AAAACGGA, 0.139; to CGTATCAC, 0.0589.

CATTGTAC: the “PBM E-score” value came to 0.273. To GTTTCCTA belongs 0.0846.

As for ACAGCAAC, the “PBM E-score” value came to 0.141.

On to ATCCTAAG, for which the “PBM E-score” value was -0.295.

On to ACTTCAGC, for which the “PBM E-score” value was -0.11. To TGTGACAA belongs 0.0767; to GGATTACC, -0.00329; to GATAGGAA, -0.227. To CTTACCCA belongs -0.0496. TTCCAGAA: the “PBM E-score” value was found to be 0.112. CTGCAATA: the “PBM E-score” value was 0.0256. To AGGATCAG belongs -0.344; to GAGATACA, 0.245. Take AGAACGCT: the “PBM E-score” value was -0.0269.

For the sequence CCAATACG, the “PBM E-score” value was 0.175. On to GACACGGA, for which the “PBM E-score” value came out at 0.224. To GACCTACA belongs 0.0344; to AAGAAATT, 0.0903; to AAGCGTGG, -0.0995. To GCTCTTAC belongs 0.3; to CAACGAGA, 0.109.

CCGCGGTA: the “PBM E-score” value is -0.211. To TGCTCAAA belongs 0.0276; to GTACATGA, 0.426; to GAGGGTCA, -0.228. To TCTAGTCA belongs -0.0327. In the case of CTGGCATA, the “PBM E-score” value is -0.17. Take CATAAGCC: the “PBM E-score” value was -0.0206. To CAACGAGG belongs 0.138; to CACCACGC, -0.221; to CGTATGCA, 0.0417.

Take GAAAGCTC: the “PBM E-score” value was -0.015.

For the sequence CAGCCAGA, the “PBM E-score” value is -0.228.

Consider AGAGAGGC, for which the “PBM E-score” value was -0.32. To AAAAGAGT belongs -0.093. As for CGGGGCCC, the “PBM E-score” value is -0.132.

On to AATTGTCA, for which the “PBM E-score” value is 0.25.

Turning to AGATTCAA, the “PBM E-score” value stood at 0.079.

Turning to CAATATTG, the “PBM E-score” value was 0.21. To GTAACGAA belongs 0.186. Regarding AACATGCT, the “PBM E-score” value stood at 0.396. To ACCGATTG belongs 0.145; to TAGACAGA, 0.0404; to CCCATACG, -0.164. For the sequence AAGCATAG, the “PBM E-score” value was -0.0992. To ACAGTTGG belongs -0.0319. As to GATGGAAC, the “PBM E-score” value is -0.067.

As to CATTATAA, the “PBM E-score” value was determined as 0.00513. Take AGAGTTAC: the “PBM E-score” value was 0.0861. To GCCTAGTA belongs -0.0732. To AATGTTTG belongs 0.145; to CCCTCCTA, -0.247. To AATGCTCT belongs 0.0455. For the sequence GCAAATAC, the “PBM E-score” value came to 0.184.

With CATCATAC, the “PBM E-score” value was found to be 0.193.

Turning to GACTGAGC, the “PBM E-score” value was -0.152. Regarding GGGGTCGA, the “PBM E-score” value is -0.083.

On to ATTATCGA, for which the “PBM E-score” value was -0.00134.

As to ACGAAGCA, the “PBM E-score” value is 0.0649. On to ATATCGAG, for which the “PBM E-score” value came to 0.00282. To CGCGACGC belongs -0.0165. Regarding TCAAGCGA, the “PBM E-score” value was -0.162.

In the case of CAAGACAC, the “PBM E-score” value worked out at 0.244. In the case of CCGGCGCA, the “PBM E-score” value was -0.169. To CGTACTCA belongs 0.0663. To GGGACAGA belongs -0.264; to GATTACAA, 0.438. Turning to ATTGGTCG, the “PBM E-score” value was -0.00657. In the case of CGCTGTGA, the “PBM E-score” value is -0.121. To AGCCGGTA belongs 0.0743. To CCCCCCAG belongs -0.357.

For the sequence GGCTTGAC, the “PBM E-score” value is -0.093.

For ACAATGAA, the “PBM E-score” value was found to be 0.174.
